Experimental data published in patent US20250049932A1, “CYTOTOXICITY TARGETING CHIMERAS FOR FOLATE RECEPTOR-EXPRESSING CELLS” (GLAXOSMITHKLINE INTELLECTUAL PROPERTY DEVELOPMENT LIMITED, priority 2022, published 2025).
For part of its entries the source gives two or more results. The list is limited to them. The source may hold further records. Values that stand side by side seem to repeat one measurement (runs, samples, wells or individuals).

Target: T1, FOLR (Homo sapiens, UniProt P15328)
T1 construct: Target cells: IGROV1 cells (typically 1000-20,000 cells per well); endogenous in cells; host or cells: IGROV1 cells
Assay: Antibody dependent cellular cytotoxicity (ADCC) reporter assay
Assay type: cell-based
Details: IGROV1 target cells; anti-cotinine antibody (SEQ ID NO: 11/12, human IgG1 Fc S239D/I332E); Jurkat FcγRIIIa NFAT-luciferase reporter cells; about 12-18 hours; one value per experimental run; EC50 in molar (M); footnote: pEC50 < 5 = inactive
Procedure: An antibody dependent cellular cytotoxicity (ADCC) reporter assay was conducted using the following four assay components: (i) ARM compound of Formula (I) targeting FOLR (concentrations ranging from 1 pM to 10 μM); (ii) anti-cotinine antibody having a heavy chain sequence of SEQ ID NO: 11 and a light chain sequence of SEQ ID NO: 12 (rabbit variable region with human IgG1 Fc domain containing DE mutation (S239D/I332E)) (concentrations ranging from 0.01 μg/mL-200 μg/mL); (iii) Target cells: IGROV1 cells (typically 1000-20,000 cells per well); and (iv) Reporter cells—Jurkat cells engineered to express FcγRIIIa with a reporter gene luciferase under the control of the NFAT promoter (typically 3000-75,000 cells per well). Reagents were combined in final volume of 20 μL in 384-well tissue culture treated plate. […]
Luminescence signal was measured on a microplate reader capable of measuring luminescence and signal: background was calculated by dividing the signal of a test well by the signal obtained when no compound of formula (I) was included in the assay. […]
ARMs compounds of Formula (I) were tested for ADCC activity in the above assay in one or more experimental runs and the results are shown in Table 3 below. […] The pEC50 value is the negative log of the EC50 value, wherein the EC50 value is half maximal effective concentration measured in molar (M). […]

T1 sequence (P15328 25-234 limits assumed): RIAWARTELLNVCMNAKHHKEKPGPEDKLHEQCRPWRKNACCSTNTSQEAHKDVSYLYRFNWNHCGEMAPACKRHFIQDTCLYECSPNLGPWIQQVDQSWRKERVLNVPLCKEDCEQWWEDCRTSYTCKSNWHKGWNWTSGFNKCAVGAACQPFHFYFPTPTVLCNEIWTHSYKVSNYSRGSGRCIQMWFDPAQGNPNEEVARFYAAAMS

## CN1C(=O)C[C@H](C(=O)NCCOCCOCCOCCOCCOCCOCCOCCOCCOCCOCCOCCOCCC(=O)NCCNC(=O)CC[C@H](NC(=O)c2ccc(NCc3cnc4nc(N)[nH]c(=O)c4n3)cc2)C(=O)O)[C@H]1c1cccnc1 [Example 3]
  EC50: 39.8 nM and 631 nM [one cell]
